Data reported in the RNAGym collection of RNA variant scans (doi:10.7554/elife.90254).
The source gives no read counts; variants with many changes may rest on few reads.

B1: LINE1-mini (parent)
chain: GGCAGAGCUCAACACAGCGUGGCAAAGUGGCUGUGGCUAGACUGCC

Variants of: B1
Assay: self-cleavage, relative activity (ratio to wild type); higher = more cleavage; in vitro, sequencing; the parent is a self-cleaving ribozyme

Row | Variant | self-cleavage
1 | G5A G30A U32A G44A | 0.06
2 | G5C A16U C18U C37U | 0.03
3 | G5A U9C A11U C42G C46U | 0.01
4 | G5U A16U G29U | 0.07
5 | G5U A14C G17U G21C | 0.14
6 | G5C C8A U9A C15A G17C U43A | 0.07
7 | G5C A39U C46G | 0.04
8 | G5C A24C U34A C37A | 0.02
9 | G5A U20A G29A U38C | 0.05
10 | G5U A14C C45G | 0.03
11 | G5A U9C C23U C31G | 0.02
12 | G5C C15U C45U C46U | 0.04
13 | G5U A12G C37G | 0.05
14 | G5A G17U U20C C45U C46G | 0.01
15 | G5A G17U G21U | 0.08
16 | G5C C10G U43G | 0
17 | G5U A16G G21U C23U A25U U34C C45G | 0.03
18 | G5C U9A A14U A16U U28C G35C G40U | 0.13
19 | G5C A12U C18A A24G C46A | 0.01
20 | G5C C13G U20G | 0.02
21 | G5U A12U G40A A41C C46U | 0.07
22 | G5C A25G G36A A39G G40U | 0.04
23 | G5U A16G A24U G44U | 0.03
24 | G5C U20G G21C C23A A24C | 0.01

Row | Variant | self-cleavage
25 | G5C C8G A25U | 0.06
26 | G5C G7A G44C | 0.29
27 | G5C A12U C13G C15U G30A | 0.01
28 | G5A G21U U28A | 0.03
29 | G5U A6G A25G U28C A41U | 0.03
30 | G5C G30A C45A | 0.04
31 | G5A G22A C46G | 0.11
32 | G5A G30C C31U A41C | 0.03
33 | G5U C8G G40U | 0.17
34 | G5A U9A G27C | 0.23
35 | G5U A6C G7A | 0.1
36 | G5C C10U A12U A16G | 0.04
37 | G5U A16U G17U G36U U43A | 0.01
38 | G5A U9A C15G C23A A26C G29A G35A | 0.09
39 | G5U A12C C13U A14U | 0.03
40 | G5U A11G C13A A24C G29A C45U | 0.02
41 | G5C G7U G40C | 0.21
42 | G5U A14G C15G C23U | 0.11
43 | G5C C8U G35A C37G | 0.09
44 | G5U A11C G17C A26U U38C U43A | 0.04
45 | G5C A6C G17A A25U | 0.11
46 | G5C U20A G35A C37G A41C | 0.1
47 | G5C G27C U34A G40C | 0.03
48 | G5C C15U C23G U38G | 0.03

Row | Variant | self-cleavage
49 | G5C A11C U20A C31U C37U | 0
50 | G5U A12C C31G U34G A41C | 0.02
51 | G5A G19A A25U A39U | 0.11
52 | G5A G19U U20A A25G | 0
53 | G5C A16C U32G | 0.13
54 | G5C G22A A25C | 0.05
55 | G5C C15A C37G | 0.01
56 | G5C U9C C37G | 0.01
57 | G5C U28C A39U A41U | 0.09
58 | G5U A41G U43C | 0.03
59 | G5C C13G A25U C45U | 0.17
60 | G5U C8A C42G | 0.05
61 | G5U A26G U28C C46A | 0.05
62 | G5C A16U G17A | 0.03
63 | G5C C10A A14G U20C C23A U28A G29U A41U C42G | 0.05
64 | G5C A11U G22A C45G | 0.03
65 | G5A G19U A24U G27A A41G | 0.03
66 | G5C G29C U38G | 0.01
67 | G5C C13A G21A G22U U43C C46G | 0.01
68 | G5A U32A G36A A39G | 0.11
69 | G5C A26G G29U | 0.02
70 | G5C A6C G33U | 0.13
71 | G5U C8G U9G G33U | 0.06
72 | G5A G30A U32G G33A C46A | 0.02

Row | Variant | self-cleavage
73 | G5C C10A A12C U43A | 0.03
74 | G5C U9A C10G C23A | 0.02
75 | G5U A6U C15U G30U | 0.19
76 | G5A G27A G33U | 0.04
77 | G5U A25U G33A C42A | 0.01
78 | G5A G22C C23U U38C | 0.09
79 | G5C G19C C23U | 0.04
80 | G5A U20G C23G A24U C31A G33C | 0.04
81 | G5C G17U C23A U28A C31U G36U C37A A39U | 0
82 | G5U A6C U28C G33U U34G | 0.05
83 | G5U A12G A14C G17C G19U G30U A41U | 0.01
84 | G5C C8G C18G G29U C45A | 0.05
85 | G5C C10A U20G C31A | 0.01
86 | G5A G30U G35C U38G | 0.05
87 | G5C A6G U43A | 0.08
88 | G5U A16C C37A | 0.04
89 | G5A G17A G19U G29C | 0.01
90 | G5U A14C U38C U43A | 0.04
91 | G5U C8G G22U | 0.34
92 | G5A U34A G40U | 0.05
93 | G5C A12C C18U U20C G21U | 0.01
94 | G5C A14G U28G | 0.02
95 | G5C G7A C10U U28C A41C | 0.05
96 | G5C C10A C13U C18U | 0.03

Row | Variant | self-cleavage
97 | G5U C8U C10A C18A G27C | 0.02
98 | G5U A11G A24C | 0.01
99 | G5C A6U C8U | 0.06
100 | G5C U9A A24G U32C | 0.05
101 | G5A G17U A24G U28G | 0.03
102 | G5C G29A G35U | 0.02
103 | G5C A6G A12C | 0.03
104 | G5U C8A A14U G22C G27U | 0.19
105 | G5U A11G C42A U43G C45U | 0.01
106 | G5A G21U A25U G30U | 0.05
107 | G5C G22U G44A | 0.05
108 | G5U A6C G7C U20A G29A U38A A39U G44A | 0.11
109 | G5C C8U C10U A14C C23G | 0.03
110 | G5U A6C G33C | 0.07
111 | G5U A12G G33A | 0.04
112 | G5C G27A U28A G44U | 0.07
113 | G5U A6C U32A | 0.05
114 | G5A G19U G21A | 0.19
115 | G5C G30A G33U C42G C45U | 0.1
116 | G5C G21U A26G U32C | 0.05
117 | G5U A14U G29U | 0.15
118 | G5U A12C A26C C42A C45A | 0.08
119 | G5A G30A G33C G40C | 0.05
120 | G5C U9G C13G U28C G36U | 0.02

Row | Variant | self-cleavage
121 | G5U A26C G40U | 0.06
122 | G5C G35A G40A C42U | 0.01
123 | G5C C18A U20C G29A U38A | 0.04
124 | G5C G7A G36U G40A | 0.34
125 | G5C C23U G36A A41U | 0.03
126 | G5C A24U U32G G44C | 0.06
127 | G5C A16G G33C C37A | 0.02
128 | G5U A14G G17A | 0.04
129 | G5C C10G G27C U28C C45A | 0
130 | G5A U20G G44U | 0.03
131 | G5A G19A C23A C42A | 0.2
132 | G5U A26C G35C U38A A39C A41C | 0.03
133 | G5C U9A C18G U20A A41C | 0.04
134 | G5U A16C G19U A25U | 0.03
135 | G5C C15U G35A A41C | 0.44
136 | G5C U32G G33A | 0.03
137 | G5U A11U C31A G33U U38C C46A | 0
138 | G5U C8G A11C A12U G22A A39G | 0.01
139 | G5C A16G G19C G36A | 0.03
140 | G5U A11G G36U G44U C45G | 0
141 | G5C G7C G21U | 0.08
142 | G5C G19A G33A G40U U43C | 0.02
143 | G5U A6U C10U A16G A26U G30C U38C | 0.03
144 | G5C A12U C13A G21C | 0.04

Row | Variant | self-cleavage
145 | G5C U28A G29C G33C A39C G44C | 0.01
146 | G5U A14U G36A G40A | 0.05
147 | G5C G27U U34C G40C C42A | 0.06
148 | G5C G29U C45A C46U | 0.07
149 | G5C C18A C37U G44U | 0.01
150 | G5C C15A C42A C46U | 0
151 | G5C U9A G30A U32C | 0.05
152 | G5U A16C G21C U38C C42G | 0.02
153 | G5A G27U G33A | 0.08
154 | G5C G22C C45A | 0.01
155 | G5U A24C G44C | 0.08
156 | G5C G7A G30A G40C G44C | 0.05
157 | G5C C8A C13U U20C G33C G35U C37G U38A | 0.19
158 | G5C A11U C13U A14U U20G A25U G29U G40A | 0.01
159 | G5C U9A C13A | 0.03
160 | G5U A24U A26G | 0.08
161 | G5C G22U U38C | 0.04
162 | G5C C10A G19C A39C C46G | 0.02
163 | G5U C8A G29U | 0.12
164 | G5U A6G C8G G27U | 0.03
165 | G5A G7U G22A | 0.12
166 | G5U A24U C37G | 0.02
167 | G5C C8G U9G C10A G21U C23U | 0.01
